Experimental data taken from the supplement of paper PMC4604168 (melanoma cell lines).
Some of the results follow. Most values come without repeats; read them as rough.

Experiments:
Assay in all cases: cell count relative to DMSO control; melanoma cells; higher = more viable cells
Settings in all cases: library dose: low library concentration; 72 h
[1] = system: WM115
[2] = system: WM1716
[3] = system: WM1745
[4] = system: WM3526
[5] = system: WM3619
[6] = system: WM451Lu
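Further: cell number obtained by counting DAPI-stained nuclei in high-throughput microscope images with image analysis software, screen run in 1,536-well plates.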

Row | Compound | cell count [1] [%] | cell count [2] [%] | cell count [3] [%] | cell count [4] [%] | cell count [5] [%] | cell count [6] [%]
1 | C[C@]1(c2nc3c(C(N)=O)cccc3[nH]2)CCCN1 [Veliparib] + O=C(Nc1cccc(Cl)c1)Nc1ncc(CCNc2ncnc3ccsc23)s1 [SNS314] (first compound 1.4 µM, partner dose 0.0008 µM) | 67.5 | 98.9 | 83.2 | 105 | 93.8 | 90.5
2 | NCC(=O)Nc1ccc(-n2nc(C(F)(F)F)cc2-c2ccc3c(ccc4ccccc43)c2)cc1 + Oc1nc(-c2ccc(C(F)(F)F)cc2)nc2c1CSCC2 [XAV939] (first compound 1 µM, partner dose 2 µM) | 97.8 | 64.1 | 103 | 63.3 | 86.1 | 47.3
3 | Cc1nc(Nc2ncc(C(=O)Nc3c(C)cccc3Cl)s2)cc(N2CCN(CCO)CC2)n1 [dasatanib] + C[C@@H]1CCN(C(=O)CC#N)C[C@@H]1N(C)c1ncnc2[nH]ccc12 [CP690550] (first compound 0.004 µM, partner dose 1 µM) | 77.4 | 57.8 | 58.7 | 94.7 | 124 | 96.1
4 | NCC(=O)Nc1ccc(-n2nc(C(F)(F)F)cc2-c2ccc3c(ccc4ccccc43)c2)cc1 + CCN(CC)CCCCNc1ncc2cc(-c3cc(OC)cc(OC)c3)c(NC(=O)NC(C)(C)C)nc2n1 [PD173074] (first compound 1 µM, partner dose 0.1 µM) | 88.5 | 106 | 78.1 | 54 | 116 | 47.3
5 | NCC(=O)Nc1ccc(-n2nc(C(F)(F)F)cc2-c2ccc3c(ccc4ccccc43)c2)cc1 + COc1cc(N2CCC(N3CCN(C)CC3)CC2)ccc1Nc1ncc(Cl)c(Nc2ccccc2S(=O)(=O)C(C)C)n1 [NVP-TAE684] (first compound 1 µM, partner dose 0.08 µM) | 83.3 | 92.2 | 81.3 | 55.1 | 106 | 53
6 | CO[C@@H]1[C@H](N(C)C(=O)c2ccccc2)C[C@H]2O[C@]1(C)n1c3ccccc3c3c4c(c5c6ccccc6n2c5c31)C(=O)NC4 [Midostaurin] + COc1cc(N2CCC(N3CCN(C)CC3)CC2)ccc1Nc1ncc(Cl)c(Nc2ccccc2S(=O)(=O)C(C)C)n1 [NVP-TAE684] (first compound 0.08 µM, partner dose 0.08 µM) | 88.4 | 66.2 | 71.1 | 93 | 80.2 | 98.2
7 | Cc1nc(Nc2ncc(C(=O)Nc3c(C)cccc3Cl)s2)cc(N2CCN(CCO)CC2)n1 [dasatanib] + COc1cc(N2CCC(N3CCN(C)CC3)CC2)ccc1Nc1ncc(Cl)c(Nc2ccccc2S(=O)(=O)C(C)C)n1 [NVP-TAE684] (first compound 0.004 µM, partner dose 0.08 µM) | 65.9 | 55.4 | 40.8 | 97.8 | 80.4 | 82.5
8 | CO[C@@H]1[C@H](N(C)C(=O)c2ccccc2)C[C@H]2O[C@]1(C)n1c3ccccc3c3c4c(c5c6ccccc6n2c5c31)C(=O)NC4 [Midostaurin] + NCC(=O)Nc1ccc(-n2nc(C(F)(F)F)cc2-c2ccc3c(ccc4ccccc43)c2)cc1 [OSU03012] (first compound 0.08 µM, partner dose 1 µM) | 59 | 62.2 | 82.8 | 44 | 87.4 | 64.4
9 | NCC(=O)Nc1ccc(-n2nc(C(F)(F)F)cc2-c2ccc3c(ccc4ccccc43)c2)cc1 + CCc1ccc(CCOc2ccc(CC3SC(=O)NC3=O)cc2)nc1 [pioglitazone] (first compound 1 µM, partner dose 2 µM) | 91.6 | 96.2 | 86 | 41.9 | 106 | 63.9
10 | OCCn1cc(-c2cnc3nnn(Cc4ccc5ncccc5c4)c3n2)cn1 + Oc1nc(-c2ccc(C(F)(F)F)cc2)nc2c1CSCC2 [XAV939] (first compound 1 µM, partner dose 2 µM) | 92.9 | 65.1 | 88.5 | 119 | 114 | 107
11 | CO[C@@H]1[C@H](N(C)C(=O)c2ccccc2)C[C@H]2O[C@]1(C)n1c3ccccc3c3c4c(c5c6ccccc6n2c5c31)C(=O)NC4 [Midostaurin] + COC(=O)c1sccc1S(=O)(=O)Nc1ccc(Nc2ccccc2)cc1OC [GSK0660] (first compound 0.08 µM, partner dose 1 µM) | 78 | 80.3 | 89.1 | 87.1 | 73 | 98.2
12 | NCC(=O)Nc1ccc(-n2nc(C(F)(F)F)cc2-c2ccc3c(ccc4ccccc43)c2)cc1 + Oc1cc(-c2nc(-c3ccccc3)[nH]c2-c2ccncc2)ccc1Cl [L779450] (first compound 1 µM, partner dose 0.2 µM) | 78.6 | 108 | 92.9 | 66.4 | 114 | 62.4
13 | CO[C@@H]1[C@H](N(C)C(=O)c2ccccc2)C[C@H]2O[C@]1(C)n1c3ccccc3c3c4c(c5c6ccccc6n2c5c31)C(=O)NC4 [Midostaurin] + O=C(Nc1cccc(Cl)c1)Nc1ncc(CCNc2ncnc3ccsc23)s1 [SNS314] (first compound 0.08 µM, partner dose 0.0008 µM) | 50.6 | 62.9 | 40.5 | 88 | 77.8 | 98.8
14 | NC(=O)Nc1cc(-c2cccc(F)c2)sc1C(=O)N[C@H]1CCCNC1 + CN(C)S(=O)(=O)c1ccc2c(c1)/C(=C/c1cc3c([nH]1)CCCC3)C(=O)N2 [SU6656] (first compound 0.02 µM, partner dose 0.4 µM) | 65.6 | 87.2 | 77.8 | 83.9 | 110 | 96
15 | C=CCn1c(=O)c2cnc(Nc3ccc(N4CCN(C)CC4)cc3)nc2n1-c1cccc(C(C)(C)O)n1 + NC(=O)Nc1cc(-c2cccc(F)c2)sc1C(=O)N[C@H]1CCCNC1 [AZD7762] (first compound 0.02 µM, partner dose 0.02 µM) | 71 | 72.4 | 77.5 | 42.4 | 26.7 | 68.7
16 | OCCn1cc(-c2cnc3nnn(Cc4ccc5ncccc5c4)c3n2)cn1 + CCCCCCCCCCCC1=C(O)C(=O)C=C(O)C1=O [Embelin] (first compound 1 µM, partner dose 1.2 µM) | 94.4 | 109 | 101 | 83.1 | 125 | 105
17 | CN(C)S(=O)(=O)c1ccc2c(c1)/C(=C/c1cc3c([nH]1)CCCC3)C(=O)N2 + Oc1cc(-c2nc(-c3ccccc3)[nH]c2-c2ccncc2)ccc1Cl [L779450] (first compound 0.4 µM, partner dose 0.2 µM) | 83.5 | 123 | 80.7 | 85.8 | 91.4 | 135
18 | OCCn1cc(-c2cnc3nnn(Cc4ccc5ncccc5c4)c3n2)cn1 + O=C(O)C(=O)Nc1sc2c(c1C(=O)O)CCNC2 [TCS401] (first compound 1 µM, partner dose 1.66667 µM) | 97.2 | 92.1 | 91.3 | 99.5 | 95.2 | 74.6
19 | C=CCn1c(=O)c2cnc(Nc3ccc(N4CCN(C)CC4)cc3)nc2n1-c1cccc(C(C)(C)O)n1 + CCN(CC)CCCCNc1ncc2cc(-c3cc(OC)cc(OC)c3)c(NC(=O)NC(C)(C)C)nc2n1 [PD173074] (first compound 0.02 µM, partner dose 0.1 µM) | 93.6 | 89.3 | 73.8 | 71 | 62.3 | 98
20 | OCCn1cc(-c2cnc3nnn(Cc4ccc5ncccc5c4)c3n2)cn1 + CCN(CC)CCCCNc1ncc2cc(-c3cc(OC)cc(OC)c3)c(NC(=O)NC(C)(C)C)nc2n1 [PD173074] (first compound 1 µM, partner dose 0.1 µM) | 97.2 | 96.8 | 86.5 | 102 | 121 | 112
21 | Cc1nc(Nc2ncc(C(=O)Nc3c(C)cccc3Cl)s2)cc(N2CCN(CCO)CC2)n1 [dasatanib] + O=c1cc(-c2cccc3c2Sc2ccccc2S3)oc(N2CCOCC2)c1 [KU55933] (first compound 0.004 µM, partner dose 1 µM) | 77.6 | 71.4 | 73.6 | 74.8 | 86.7 | 81.9
22 | C=CCn1c(=O)c2cnc(Nc3ccc(N4CCN(C)CC4)cc3)nc2n1-c1cccc(C(C)(C)O)n1 + Cc1ccc(NC(=O)c2cccc(N(C)C)c2)cc1NC(=O)c1ccc(O)cc1 [ZM336372] (first compound 0.02 µM, partner dose 2 µM) | 81.5 | 93 | 86.4 | 93.9 | 54.7 | 127
23 | C=CCn1c(=O)c2cnc(Nc3ccc(N4CCN(C)CC4)cc3)nc2n1-c1cccc(C(C)(C)O)n1 + CCc1ccc(CCOc2ccc(CC3SC(=O)NC3=O)cc2)nc1 [pioglitazone] (first compound 0.02 µM, partner dose 2 µM) | 80.7 | 70.4 | 57.4 | 92.8 | 70.7 | 102
